Assay results taken from the BET-seq Pho4 binding data (Le et al. 2018).
The other results are listed elsewhere or left out. These are noisy estimates, calculated here from bound and input reads.

The sequences below were run against T1, Pho4 (S. cerevisiae) (UniProt P07270) (assay: relative binding free energy (BET-seq); higher = weaker binding). Conditions: reference: library average.
T1 sequence: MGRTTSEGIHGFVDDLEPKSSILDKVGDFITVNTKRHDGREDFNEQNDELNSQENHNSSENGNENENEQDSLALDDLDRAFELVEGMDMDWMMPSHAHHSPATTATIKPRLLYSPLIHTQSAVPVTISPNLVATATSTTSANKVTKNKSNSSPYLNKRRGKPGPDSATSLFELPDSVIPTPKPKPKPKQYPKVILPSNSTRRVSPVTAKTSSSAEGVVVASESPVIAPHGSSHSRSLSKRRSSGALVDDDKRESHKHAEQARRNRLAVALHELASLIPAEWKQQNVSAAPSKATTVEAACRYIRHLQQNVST

Sequence	relative binding free energy [kJ/mol]
AGTAGCACGTGACGTG	-0.418
CGTGACACGTGGGGGA	-0.711
TTATGCACGTGAGAGC	1.38
CTTGCCACGTGAGGGG	0.251
TGATACACGTGCATTG	0.293
AAAGGCACGTGGAGCT	-0.335
ACAGACACGTGTGGTA	0.795
TATTTCACGTGCTTAG	0.711
GGGAACACGTGGGGTA	-0.628
AGGTCCACGTGGGGCT	-0.795
CGATTCACGTGTGTTA	1.38
TATTTCACGTGGTGTT	1.05
GGTGTCACGTGTATGA	0.628
GGGGGCACGTGCGAGT	-0.293
TTTAACACGTGGATGT	-0.418
GTGGACACGTGCTTTT	0
AAGTGCACGTGCCGGT	-0.251
GTGAGCACGTGGTCTT	-0.0418
TTGGTCACGTGGTTGT	0.502
ATGTTCACGTGAGTAG	0.879
AGCGGCACGTGGCGGT	-0.962
TTAATCACGTGTGGAA	0.879
TGTACCACGTGCTGGG	-0.92

Sequence	relative binding free energy [kJ/mol]
GAGGGCACGTGGTAAA	-0.167
TTACGCACGTGGTGAA	0.0418
ATTGGCACGTGGGATG	-0.669
TAGTGCACGTGCAATG	-0.126
ATGTTCACGTGTAGGG	1
AATGCCACGTGTTGTG	-0.126
AGAGGCACGTGATGTA	-0.0837
TTAAGCACGTGTGTGG	-0.167
GGCTGCACGTGTGTGT	0.669
TAAGTCACGTGGGAAA	0.544
AGTGTCACGTGTGTTG	-0.0418
TTAGTCACGTGCGTTA	0.753
TAGTTCACGTGGTATT	0.879
AGGTACACGTGATCGG	0.251
CGGTTCACGTGGTCGT	0.753
TGTCACACGTGAGGTT	1.09
ATGCACACGTGTTGGG	0.167
GGTGGCACGTGGTCGC	-1.13
GGTGTCACGTGCGAGT	0.335
AATGTCACGTGGATGG	0.251
TTGTACACGTGGCCGT	-0.335
GGTTTCACGTGATATC	1.84
TTAAACACGTGGGTCT	-0.0418

Sequence	relative binding free energy [kJ/mol]
GGTTGCACGTGGCTGG	0.0418
ATTGGCACGTGCGGCG	-0.879
TGGTTCACGTGTAGCT	0.795
CTGGACACGTGGATTG	0.126
TAGGGCACGTGCCAGG	-0.586
TTTCTCACGTGGCTAT	0.92
TGAGGCACGTGACTGT	-0.795
TTGGGCACGTGCGTGA	-0.753
GCAAGCACGTGGGAGT	-0.879
GAGGGCACGTGAAGAT	0.795
TGACGCACGTGTATTT	0.209
AAGAGCACGTGTTGGT	-0.293
TAGGTCACGTGGGCAT	-0.0418
TATGTCACGTGTAATA	-0.209
TGTTACACGTGAAGTA	1.21
TTGTACACGTGACGGA	0.837
ATATTCACGTGTGGTG	0.962
GGTCGCACGTGGTTTT	-0.0837
ATTATCACGTGGGTAC	0.167
GTCGGCACGTGGTGTG	-0.586
GACGTCACGTGGGAGT	0.418
CTTAACACGTGTGTTT	0.0837
GGGTCCACGTGATAGG	1.05

Sequence	relative binding free energy [kJ/mol]
CTATTCACGTGATTTG	1.46
GCGTTCACGTGATGTA	1
CATAGCACGTGTTGTG	-0.753
TTTTACACGTGTTTTT	0.962
AGCGGCACGTGTTAGT	-0.293
CATAACACGTGGTTTA	0.126
GCGTGCACGTGTGCTG	-0.251
AGTTGCACGTGATCAG	0.126
TTCTTCACGTGGTGGC	0.962
AAGTTCACGTGGAGTG	0.628
TGGGTCACGTGCGTAG	0.167
TCTATCACGTGTATTG	0.335
TTAAGCACGTGTCGAT	-0.126
AGTAACACGTGTGATG	0.0418
GTATGCACGTGCATGT	-0.0837
GGTGGCACGTGTTGCG	-0.0418
ACGTTCACGTGGTTCG	1.46
GGTTTCACGTGTAAGA	1.72
GAATTCACGTGAAGTA	2.3
TGAGACACGTGGAATT	0.92
TGTCTCACGTGTGCGG	0.586
AATATCACGTGTTAAT	0.293
GCGTACACGTGTGGAG	0.293

Sequence	relative binding free energy [kJ/mol]
AAGGTCACGTGTATGT	0.628
ATGTGCACGTGGGCAA	-0.753
GTAAACACGTGGGAGT	0
GGTATCACGTGATGCT	1.55
GTGGACACGTGACAGG	-0.0837
GTCTTCACGTGTTTTT	1.67
GAGAGCACGTGCGGTT	-0.586
CTGTGCACGTGGTCGT	-0.167
AAGTTCACGTGGGGCA	0.293
TTCGTCACGTGATTGG	1.42
GTTATCACGTGTGGTC	0.837
GTTTTCACGTGGACGG	1.21
TCTAGCACGTGGGAGT	-1.17
TTTGGCACGTGATGTC	0.0418
CGGCTCACGTGTTGGG	1.17
GGTTGCACGTGGGTCA	-0.502
TGAATCACGTGAGTTG	0.92
CAAAGCACGTGTGTTG	0.126
TACGTCACGTGTTGTA	-0.0418
GTAGGCACGTGGGTTT	-0.502
GTGGCCACGTGGAGGC	-0.628
TGCAGCACGTGGTGTC	-0.711
TATTCCACGTGGGTGC	-0.293
